# Measurements: the supplement of paper PMC8728848
# The list shows a part of the results.
# B1: MGL (Homo sapiens), Q8IUN9 (protein)
# chain: MTRTYENFQYLENKVKVQGFKNGPLPLQSLLQRLCSGPCHLLLSLGLGLLLLVIICVVGFQNSKFQRDLVTLRTDFSNFTSNTVAEIQALTSQGSSLEETIASLKAEVEGFKQERQAGVSELQEHTTQKAHLGHCPHCPSVCVPVHSEMLLRVQQLVQDLKKLTCQVATLNNNASTEGTCCPVNWVEHQDSCYWFSHSGMSWAEAEKYCQLKNAHLVVINSREEQNFVQKYLGSAYTWMGLSDPEGAWKWVDGTDYATGFQNWKPGQPDDWQGHGLGGGEDCAHFHPDGRWNDDVCQRPYHWVCEAGLGQTSQESH
# Tests used:
# Assay in all cases: glycan array binding signal (z-score within array); higher = stronger binding
# Conditions in all cases: glycan notation: IUPAC condensed, linker removed
# [1] = biological target: Neu5Ac(a2-3)Gal(b1-4)GlcNAc(b1-3)Gal(b1-4)GlcNAc(b1-2)Man(a1-3)[Neu5Ac(a2-3)Gal(b1-4)GlcNAc(b1-3)Gal(b1-4)GlcNAc(b1-2)Man(a1-6)]Man(b1-4)GlcNAc(b1-4)GlcNAc
# Method in brief: (§1)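 From the Consortium for Functional Glycomics database, 3228 arrays were curated, keeping only those whose protein sequence was available. Binding is given as a within-array Z-score averaged across arrays sharing a protein sequence and across linkers. Negative Z-scores can be read as non-binding.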
# [2] = biological target: Neu5Ac(a2-3)Gal(b1-4)GlcNAc(b1-3)Gal(b1-4)GlcNAc(b1-3)Gal(b1-4)GlcNAc
# Method in brief: as §1
# [3] = biological target: Neu5Ac(a2-3)Gal(b1-4)GlcNAc(b1-3)Gal(b1-4)GlcNAc(b1-3)Gal(b1-4)GlcNAc(b1-2)Man(a1-3)[Neu5Ac(a2-3)Gal(b1-4)GlcNAc(b1-3)Gal(b1-4)GlcNAc(b1-3)Gal(b1-4)GlcNAc(b1-2)Man(a1-6)]GalNAc
# Method in brief: as §1
# [4] = biological target: Neu5Ac(a2-3)Gal(b1-4)GlcNAc(b1-3)Gal(b1-4)GlcNAc(b1-3)GalNAc
# Method in brief: as §1
# [5] = biological target: Neu5Ac(a2-3)Gal(b1-4)GlcNAc(b1-3)Gal(b1-4)GlcNAc(b1-3)[Neu5Ac(a2-3)Gal(b1-4)GlcNAc(b1-3)Gal(b1-4)GlcNAc(b1-6)]GalNAc
# Method in brief: as §1
# [6] = biological target: Neu5Ac(a2-3)Gal(b1-4)GlcNAc(b1-3)Gal(b1-4)GlcNAc(b1-6)[Gal(b1-3)]GalNAc
# Method in brief: as §1
# [7] = biological target: Neu5Ac(a2-3)Gal(b1-4)GlcNAc(b1-3)Gal(b1-4)[Fuc(a1-3)]GlcNAc
# Method in brief: as §1
# [8] = biological target: Neu5Ac(a2-3)Gal(b1-4)GlcNAc(b1-3)GalNAc
# Method in brief: as §1
# [9] = biological target: Neu5Ac(a2-3)Gal(b1-4)GlcNAc(b1-3)[Neu5Ac(a2-3)Gal(b1-4)GlcNAc(b1-6)]GalNAc
# Method in brief: as §1
# [10] = biological target: Neu5Ac(a2-3)Gal(b1-4)GlcNAc(b1-6)GalNAc
# Method in brief: as §1
# [11] = biological target: Neu5Ac(a2-3)Gal(b1-4)GlcNAc(b1-6)[Gal(b1-3)]GalNAc
# Method in brief: as §1
# [12] = biological target: Neu5Ac(a2-3)Gal(b1-4)GlcNAc(b1-6)[Neu5Ac(a2-3)Gal(b1-3)]GalNAc
# Method in brief: as §1
# [13] = biological target: Neu5Ac(a2-3)Gal(b1-4)GlcNAc6S
# Method in brief: as §1
# [14] = biological target: Neu5Ac(a2-3)Gal(b1-4)[Fuc(a1-3)]GlcNAc
# Method in brief: as §1
# [15] = biological target: Neu5Ac(a2-3)Gal(b1-4)[Fuc(a1-3)]GlcNAc(b1-2)Man
# Method in brief: as §1
# [16] = biological target: Neu5Ac(a2-3)Gal(b1-4)[Fuc(a1-3)]GlcNAc(b1-3)Gal
# Method in brief: as §1
# [17] = biological target: Neu5Ac(a2-3)Gal(b1-4)[Fuc(a1-3)]GlcNAc(b1-3)Gal(b1-4)GlcNAc
# Method in brief: as §1
# [18] = biological target: Neu5Ac(a2-3)Gal(b1-4)[Fuc(a1-3)]GlcNAc(b1-3)Gal(b1-4)[Fuc(a1-3)]GlcNAc(b1-3)Gal(b1-4)[Fuc(a1-3)]GlcNAc
# Method in brief: as §1
# [19] = biological target: Neu5Ac(a2-3)Gal(b1-4)[Fuc(a1-3)]GlcNAc(b1-3)GalNAc
# Method in brief: as §1
# [20] = biological target: Neu5Ac(a2-3)Gal(b1-4)[Fuc(a1-3)]GlcNAc(b1-6)[Gal(b1-3)]GalNAc
# Method in brief: as §1
# [21] = biological target: Neu5Ac(a2-3)Gal(b1-4)[Fuc(a1-3)]GlcNAc(b1-6)[Neu5Ac(a2-3)Gal(b1-3)]GalNAc
# Method in brief: as §1
# [22] = biological target: Neu5Ac(a2-3)Gal(b1-4)[Fuc(a1-3)]GlcNAc6S
# Method in brief: as §1
# [23] = biological target: Neu5Ac(a2-3)Gal6S(b1-4)GlcNAc
# Method in brief: as §1
# [24] = biological target: Neu5Ac(a2-3)Gal6S(b1-4)[Fuc(a1-3)]GlcNAc
# Method in brief: as §1
# Neu5Ac(a2-3)GalNAc = biological target: Neu5Ac(a2-3)GalNAc
# Method in brief: as §1
# [25] = biological target: Neu5Ac(a2-3)GalNAc(b1-4)GlcNAc
# Method in brief: as §1
# [26] = biological target: Neu5Ac(a2-3)[GalNAc(b1-4)]Gal(b1-4)Glc
# Method in brief: as §1
# [27] = biological target: Neu5Ac(a2-3)[GalNAc(b1-4)]Gal(b1-4)GlcNAc
# Method in brief: as §1
# [28] = biological target: Neu5Ac(a2-3)[GalNAc(b1-4)]Gal(b1-4)GlcNAc(b1-3)GalNAc
# Method in brief: as §1
# [29] = biological target: Neu5Ac(a2-3)[Neu5Ac(a2-6)]GalNAc
# Method in brief: as §1
# Neu5Ac(a2-6)Gal = biological target: Neu5Ac(a2-6)Gal
# Method in brief: as §1
# [30] = biological target: Neu5Ac(a2-6)Gal(b1-3)GlcNAc(b1-3)[Gal(b1-4)GlcNAc(b1-6)]Gal(b1-4)Glc
# Method in brief: as §1
# Neu5Ac(a2-6)Gal(b1-4)Glc = biological target: Neu5Ac(a2-6)Gal(b1-4)Glc
# Method in brief: as §1
# [31] = biological target: Neu5Ac(a2-6)Gal(b1-4)GlcNAc
# Method in brief: as §1
# [32] = biological target: Neu5Ac(a2-6)Gal(b1-4)GlcNAc(b1-2)Man
# Method in brief: as §1
# [33] = biological target: Neu5Ac(a2-6)Gal(b1-4)GlcNAc(b1-2)Man(a1-3)Man(b1-4)GlcNAc(b1-4)GlcNAc
# Method in brief: as §1
# [34] = biological target: Neu5Ac(a2-6)Gal(b1-4)GlcNAc(b1-2)Man(a1-3)[Gal(b1-4)GlcNAc(b1-2)Man(a1-6)]Man(b1-4)GlcNAc(b1-4)GlcNAc
# Method in brief: as §1
# [35] = biological target: Neu5Ac(a2-6)Gal(b1-4)GlcNAc(b1-2)Man(a1-3)[GlcNAc(b1-2)Man(a1-6)]Man(b1-4)GlcNAc(b1-4)GlcNAc
# Method in brief: as §1
binder,measurement,setting,value
B1,glycan array binding signal (z-score),[1],-0.695
same,glycan array binding signal (z-score),[2],-0.254
same,glycan array binding signal (z-score),[3],-0.22
same,glycan array binding signal (z-score),[4],-0.251
same,glycan array binding signal (z-score),[5],-0.277
same,glycan array binding signal (z-score),[6],-0.25
same,glycan array binding signal (z-score),[7],-0.251
same,glycan array binding signal (z-score),[8],-0.244
same,glycan array binding signal (z-score),[9],-0.527
same,glycan array binding signal (z-score),[10],3.25
same,glycan array binding signal (z-score),[11],-0.238
same,glycan array binding signal (z-score),[12],-0.245
same,glycan array binding signal (z-score),[13],-0.244
same,glycan array binding signal (z-score),[14],-0.243
same,glycan array binding signal (z-score),[15],-0.243
same,glycan array binding signal (z-score),[16],-0.244
same,glycan array binding signal (z-score),[17],-0.239
same,glycan array binding signal (z-score),[18],-0.238
same,glycan array binding signal (z-score),[19],-0.196
same,glycan array binding signal (z-score),[20],-0.235
same,glycan array binding signal (z-score),[21],-0.24
same,glycan array binding signal (z-score),[22],-0.244
same,glycan array binding signal (z-score),[23],-0.246
same,glycan array binding signal (z-score),[24],-0.254
same,glycan array binding signal (z-score),Neu5Ac(a2-3)GalNAc,-0.213
same,glycan array binding signal (z-score),[25],-0.244
same,glycan array binding signal (z-score),[26],1.81
same,glycan array binding signal (z-score),[27],0.79
same,glycan array binding signal (z-score),[28],0.1
same,glycan array binding signal (z-score),[29],-0.239
same,glycan array binding signal (z-score),Neu5Ac(a2-6)Gal,-0.236
same,glycan array binding signal (z-score),[30],-0.247
same,glycan array binding signal (z-score),Neu5Ac(a2-6)Gal(b1-4)Glc,-0.248
same,glycan array binding signal (z-score),[31],-0.247
same,glycan array binding signal (z-score),[32],-0.273
same,glycan array binding signal (z-score),[33],-0.199
same,glycan array binding signal (z-score),[34],-0.244
same,glycan array binding signal (z-score),[35],-0.24
